According to paper PMC4336329 (PLoS ONE, 2015):
Hit rate of the full screen: of about 310,000 compounds, about 14,000 (4.5%) showed an effect of 50% or more. Effects have a minus sign here. This is one part of the list.

The compounds below were run against human ether-à-go-go-related gene (hERG) potassium channel (human, UniProt Q12809) (assay: primary screen, population patch clamp on CHO cells stably expressing hERG).
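Also: peak tail current of the secondary pulse compared with the same well before compound.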

Chain of human ether-à-go-go-related gene (hERG) potassium channel (Q12809 whole entry, looked up): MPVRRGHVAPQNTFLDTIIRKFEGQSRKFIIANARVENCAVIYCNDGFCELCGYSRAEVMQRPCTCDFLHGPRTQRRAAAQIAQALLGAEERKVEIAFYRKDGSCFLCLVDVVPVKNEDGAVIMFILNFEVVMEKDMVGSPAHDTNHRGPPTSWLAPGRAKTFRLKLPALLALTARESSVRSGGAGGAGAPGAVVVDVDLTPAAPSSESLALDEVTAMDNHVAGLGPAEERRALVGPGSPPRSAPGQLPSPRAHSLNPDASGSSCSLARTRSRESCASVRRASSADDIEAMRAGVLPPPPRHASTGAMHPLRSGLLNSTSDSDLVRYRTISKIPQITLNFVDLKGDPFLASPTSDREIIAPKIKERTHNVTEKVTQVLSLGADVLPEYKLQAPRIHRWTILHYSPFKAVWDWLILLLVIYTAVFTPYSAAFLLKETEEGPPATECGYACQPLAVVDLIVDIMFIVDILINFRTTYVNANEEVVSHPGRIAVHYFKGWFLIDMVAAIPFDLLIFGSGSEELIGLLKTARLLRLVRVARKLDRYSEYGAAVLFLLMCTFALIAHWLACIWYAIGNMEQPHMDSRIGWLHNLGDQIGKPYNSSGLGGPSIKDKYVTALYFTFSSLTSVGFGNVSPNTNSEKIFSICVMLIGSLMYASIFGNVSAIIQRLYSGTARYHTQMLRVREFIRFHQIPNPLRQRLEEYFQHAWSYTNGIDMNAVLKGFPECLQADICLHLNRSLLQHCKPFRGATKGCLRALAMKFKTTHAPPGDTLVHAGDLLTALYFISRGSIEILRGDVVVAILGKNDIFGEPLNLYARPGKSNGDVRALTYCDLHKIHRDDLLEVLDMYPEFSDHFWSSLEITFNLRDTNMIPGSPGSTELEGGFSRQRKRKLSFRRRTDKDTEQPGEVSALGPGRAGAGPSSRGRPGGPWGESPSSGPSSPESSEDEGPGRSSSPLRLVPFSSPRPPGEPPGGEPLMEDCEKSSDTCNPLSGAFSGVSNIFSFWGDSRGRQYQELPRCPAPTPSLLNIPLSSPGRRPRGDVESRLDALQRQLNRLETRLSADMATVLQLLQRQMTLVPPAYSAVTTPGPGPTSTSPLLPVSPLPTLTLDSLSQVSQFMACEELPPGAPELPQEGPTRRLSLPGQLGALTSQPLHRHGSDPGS

SMILES	hERG current change (%, negative = inhibition) at 10uM
O=C(Nc1ccccc1)NC1CS(=O)(=O)CC1O (centres unmarked)	-0.111%
CCn1c(-c2ccc(F)cc2)cnc1SCC(=O)N1CCc2ccccc21	-1.67%
CCOC(=O)C1CCN(c2nc3c(C)cccn3c(=O)c2/C=C(\C#N)S(=O)(=O)c2ccccc2)CC1	-18.1%
Cc1cc(C)c(S(=O)(=O)Nc2ncccc2C)c(C)c1	-10.7%
CCn1cc(CN2CCc3c([nH]c4ccccc34)C2c2cccc(OC)c2OC)c(C)n1 (centres unmarked)	7.99%
CNC(=O)c1ccccc1Sc1ccccc1CO	27.9%
NS(=O)(=O)c1ccc(NC(=S)NC(=O)c2ccc(Br)o2)cc1	25.1%
Cc1cc(C(=O)COC(=O)/C=C/c2cccc(F)c2)c(C)n1C	10.6%
Cc1[nH]c2ccccc2c1C1=NNC(=Nc2ccc(F)cc2)SC1	17.7%
COc1ccc(C(CNC(=O)c2ccc(Cl)c(S(=O)(=O)N3CCCC3)c2)N2CCCC2)cc1 (centres unmarked)	-57.6%
O=C(CN1C(=O)CCSc2ccccc21)NC1CCCCC1	4.58%
O=C(NC1(C(F)(F)F)NC(=O)N(c2ccc(F)cc2)C1=O)c1ccncc1 (centres unmarked)	-5.28%
O=C(Cc1ccc(Cl)cc1Cl)NC1CCCCCC1	-1.59%
COc1ccc(O)c(C(=O)c2cc(SCC(=O)O)c3nc4sc5c(c4c(=O)n3c2)CCCC5)c1	6.54%
CCOc1ccccc1CN1CCN(Cc2nc3ccccc3s2)CC1CCO (centres unmarked)	-74.8%
Cc1cc2c3c(c1C)C1(C(=O)N3C(C)(C)CC2C)C(C#N)=C(N)OC2=C1C(=O)CC(C)(C)C2 (centres unmarked)	-1.25%
O=C(C1CCCO1)N1CCN(C(=S)Nc2ccc(Cl)c(Cl)c2)CC1 (centres unmarked)	-30.2%
COc1ccc(CC(=O)Nc2ccccc2N2CCCC2)cc1	-6.14%
CC1CCCCC1NC(=O)COC(=O)/C=C/c1ccco1 (centres unmarked)	-1.9%
CCOc1[nH]n(-c2ccccc2)c(=O)c1C=Nc1ccc(OC)cc1	1%
COc1ccc(-c2cc(N3C(=O)Nc4ccccc4N3O)n[nH]2)cc1OC	3.84%
Cc1ccc(CNC(=S)N2CCOCC2)cc1	4.71%

SMILES	hERG current change (%, negative = inhibition) at 10uM
CCCCC(=O)N1CC(=O)Nc2ccc(F)cc2C1c1ccc(F)cc1 (centres unmarked)	15.2%
O=C(Nc1ccccc1C(F)(F)F)N1CCC(n2c(=O)[nH]c3ccccc32)CC1	4.3%
CC(C)c1ccc(C(=O)OCC(=O)NC2CCCC2)cc1	17%
Cc1c(C=O)c2ccccn2c1C(=O)c1ccccc1Cl	10.6%
CC(=O)Nc1ccc2c(c1)nc(CCNC(=O)c1ccccc1)n2C	10.5%
Cc1cccc(NC(=O)C2CCN(S(=O)(=O)c3c(C)nn(C)c3C)CC2)n1	12.3%
O=C(Nc1cc(Cl)ccc1-n1cncn1)c1cc(F)c(F)c(F)c1F	-27.9%
Cc1cc(C)nc(SSc2nc(C)cc(C)n2)n1	14.9%
O=C(NC(c1ccccc1)c1ccccn1)c1cccc([N+](=O)[O-])c1 (centres unmarked)	-15.9%
CS(=O)(=O)NNC(=O)c1csc(Cc2c(Cl)sc3ccc(Cl)cc23)n1	9.41%
CC(CCc1ccc(O)cc1)NCCc1ccc(O)c(O)c1.Cl (centres unmarked)	-13.9%
CC(C)C(NC(=O)c1ccc(C(C)(C)C)cc1)C(=O)NCC(c1ccccc1)N(C)C (centres unmarked)	-18.7%
O=C(Cn1nc(Cl)nc1Cl)Nc1ccccc1	-1.44%
COc1ccc(C(=O)Nc2ccc(S(=O)(=O)Nc3nccc(C)n3)cc2)cc1[N+](=O)[O-]	16.2%
CC(=O)Nc1sc2c(c1CN1CCN(C)CC1)CCCC2	-1.92%
Cc1ccc(NC(=O)COC(=O)C2CSC3(C)CCC(=O)N23)cc1S(=O)(=O)N1CCOCC1 (centres unmarked)	-31.3%
Cc1ccc(Cl)c(OCC(=O)Nc2ccccc2C(=O)NC2CC2)c1	3.5%
CN1C(=O)C(=Cc2ccc(N(C)C)c([N+](=O)[O-])c2)C(=O)N(C)C1=O	1.01%
COC(=O)CCC(=O)N1CCCC(CO)(Cc2ccccc2)C1 (centres unmarked)	-11.3%
COc1ccc(CCN2C(=O)CSC2c2ccc(OC)c(OC)c2)cc1OC (centres unmarked)	-8.22%
Cn1cnnc1SCC(=O)Nc1ccc(S(=O)(=O)N2CCOCC2)cc1	13.7%
COc1ccc(-c2nnc(NC(=O)c3ccc4c(c3)OCCO4)o2)cc1	23.3%
